Data published in PMC9671898.
These are yes or no findings as the source states them, for the method shown. Binding seen in cells or lysates may run through a third protein. Some results given as binding are weak or reduced against the parent protein; the word gives no strength.

Sequences of proteins named here, by UniProt entry; tags and fusion partners are left off.
UniProt Q96524: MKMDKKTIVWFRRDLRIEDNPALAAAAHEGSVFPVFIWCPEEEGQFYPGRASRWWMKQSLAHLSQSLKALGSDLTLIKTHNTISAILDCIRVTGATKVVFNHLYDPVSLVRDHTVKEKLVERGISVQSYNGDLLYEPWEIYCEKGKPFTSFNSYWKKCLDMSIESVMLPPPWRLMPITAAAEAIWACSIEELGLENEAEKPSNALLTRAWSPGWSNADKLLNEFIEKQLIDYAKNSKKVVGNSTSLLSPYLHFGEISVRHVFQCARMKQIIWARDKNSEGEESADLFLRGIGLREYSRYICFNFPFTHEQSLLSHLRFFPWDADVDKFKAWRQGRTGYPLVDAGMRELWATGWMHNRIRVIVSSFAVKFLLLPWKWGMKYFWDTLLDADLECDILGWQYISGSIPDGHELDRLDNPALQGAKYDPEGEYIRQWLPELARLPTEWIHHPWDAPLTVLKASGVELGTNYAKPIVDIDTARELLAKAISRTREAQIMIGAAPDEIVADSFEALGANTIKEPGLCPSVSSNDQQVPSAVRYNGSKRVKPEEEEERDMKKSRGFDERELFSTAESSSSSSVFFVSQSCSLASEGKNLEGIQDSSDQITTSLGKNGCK

What was measured:
[1] = molecular target: T1, CIS1, endogenous in Arabidopsis seedlings (Arabidopsis thaliana (endogenous in Col-0 seedlings)) (UniProt Q94C11); assay: co-IP; endogenous proteins of Col-0 seedlings pretreated in darkness 24 h, MG132 in the dark, then blue light (30 μmol m^-2 s^-1) for 20 min; IP with anti-CIS1 antibody and protein-A Sepharose, 150 mM NaCl, 0.1% NP40, 4 °C; blot with anti-CRY2
T1 sequence: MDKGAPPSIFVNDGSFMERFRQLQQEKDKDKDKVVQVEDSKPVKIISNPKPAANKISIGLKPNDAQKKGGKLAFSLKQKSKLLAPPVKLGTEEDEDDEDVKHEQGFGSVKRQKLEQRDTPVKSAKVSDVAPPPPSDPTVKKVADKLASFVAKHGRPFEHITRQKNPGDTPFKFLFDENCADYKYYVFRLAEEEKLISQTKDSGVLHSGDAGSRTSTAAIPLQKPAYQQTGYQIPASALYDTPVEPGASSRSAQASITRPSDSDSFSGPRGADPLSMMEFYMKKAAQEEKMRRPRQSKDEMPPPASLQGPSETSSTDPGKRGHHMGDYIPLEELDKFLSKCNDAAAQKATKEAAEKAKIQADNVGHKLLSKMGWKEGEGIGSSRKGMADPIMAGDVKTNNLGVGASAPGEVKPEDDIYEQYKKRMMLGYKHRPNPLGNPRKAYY

[2] = molecular target: T1, CIS1, endogenous in Arabidopsis seedlings (Arabidopsis thaliana (endogenous in Col-0 seedlings)); assay: co-IP; as the blue-light sample, but Col-0 seedlings kept in darkness for the additional 20 min (dark control); IP with anti-CIS1 antibody, blot with anti-CRY2

binding [1]: binds
binding [2]: binds weakly
Substance: CRY2, endogenous in Arabidopsis seedlings (from UniProt Q96524 1-612) (receptor)
